Results reported in the supplement of paper PMC4967469.
Lines with a small IC50 respond at low doses; a limit (>, <) means that the fit lies beyond the doses tested. AUC sums up the same curve from the lowest dose to the 256-fold higher top dose; values near 1 show little effect. Where an entry number is given, a second screen of the drug exists; the two often differ.

Compound: CS(=O)(=O)N1CCN(Cc2cc3nc(-c4cccc5[nH]ncc45)nc(N4CCOCC4)c3s2)CC1 [GDC0941]
Experiment: Viability of human cancer cell lines after 72 h of drug (GDSC screen)
Conditions: screen: GDSC drug entry 1058
Experimental: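 Human cancer cell lines in 384-well plates, medium with 10% serum, drug for 72 h over a 256-fold dose range (nine 2-fold or five 4-fold steps up to the top dose). Adherent lines were fixed and stained with the nucleic acid dye Syto60, suspension lines read with resazurin; signal relative to control wells, capped at 0 and 100%. One two-parameter sigmoid per drug and line, fitted in a mixed model over all curves with the slope shared within a line.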

Cell Line “SNU-61 (large intestine, adherent, top dose 4 µM)” has an AUC of 0.937 and an IC50 of over 4000 nM.

“A2780 (ovary, semi-adherent, top dose 4 µM)” showed an AUC of 0.844 and an IC50 of 3000 nM.

Cell Line “NB10 (neuroblastoma, adherent, top dose 4 µM)” has an AUC of 0.966 and an IC50 of over 4000 nM.

Cell Line “NB6 (neuroblastoma, adherent, top dose 4 µM)” has an AUC of 0.955 and an IC50 of over 4000 nM.

With “TUR (B-cell lymphoma, suspension, top dose 4 µM)” the AUC was 0.526 and the IC50 was 292 nM.

With “ECC10 (stomach, suspension, top dose 4 µM)” the AUC was 0.629 and the IC50 was 576 nM.

Cell Line “LOU-NH91 (lung squamous cell carcinoma, adherent, top dose 4 µM)” has an AUC of 0.859 and an IC50 of 3820 nM.

In the case of “MDA-MB-157 (breast, adherent, top dose 4 µM)”, the AUC is reported as 0.876 and the IC50 is reported as over 4000 nM.

“EW-18 (Ewing sarcoma, suspension, top dose 4 µM)” was tested, and the AUC was 0.435 and the IC50 was 163 nM.

Cell Line “Daudi (Burkitt lymphoma, suspension, top dose 4 µM)” has an AUC of 0.877 and an IC50 of 3150 nM.

Work on “NCI-H2342 (lung adenocarcinoma, adherent, top dose 4 µM)” yielded an AUC of 0.866 and an IC50 of over 4000 nM.

Cell Line “H513 (mesothelioma, semi-adherent, top dose 4 µM)” has an AUC of 0.942 and an IC50 of over 4000 nM.

With “OVCA420 (ovary, adherent, top dose 4 µM)” the AUC was 0.703 and the IC50 was 1140 nM.

With “CaR-1 (large intestine, adherent, top dose 4 µM)” the AUC was 0.805 and the IC50 was 3390 nM.

“SU-DHL-8 (B-cell lymphoma, suspension, top dose 4 µM)” was tested, and the AUC was 0.968 and the IC50 was over 4000 nM.

“MKN28 (stomach, adherent, top dose 4 µM)” gave an AUC of 0.904 and an IC50 of over 4000 nM.

For “IA-LM (large cell lung carcinoma, adherent, top dose 4 µM)”, the AUC was 0.854 and the IC50 was 3790 nM.

“KNS-62 (lung squamous cell carcinoma, adherent, top dose 4 µM)” was tested, and the AUC was 0.812 and the IC50 was 3500 nM.

“RF-48 (stomach, adherent, top dose 4 µM)” was tested, and the AUC was 0.812 and the IC50 was 2480 nM.

Cell Line “RS4-11 (leukaemia, suspension, top dose 4 µM)” has an AUC of 0.36 and an IC50 of 107 nM.

GCIY (stomach, adherent, top dose 4 µM) gave an AUC of 0.583.

“RCC-AB (kidney, adherent, top dose 4 µM)” showed an AUC of 0.75 and an IC50 of 1670 nM.

With A704 (kidney, adherent, top dose 4 µM) the AUC was 0.755 and the IC50 was 1320 nM.

“HOP-62 (lung adenocarcinoma, adherent, top dose 4 µM)” was tested, and the AUC was 0.935 and the IC50 was over 4000 nM.

For “MC-CAR (haematopoietic neoplasm, suspension, top dose 4 µM)”, the AUC was 0.691 and the IC50 was 801 nM.

Work on “BL-41 (Burkitt lymphoma, suspension, top dose 4 µM)” yielded an AUC of 0.837 and an IC50 of 1830 nM.

In the case of “C-33-A (cervix, adherent, top dose 4 µM)”, the AUC is reported as 0.919 and the IC50 is reported as over 4000 nM.

“NCI-H345 (small cell lung carcinoma, suspension, top dose 4 µM)” gave an AUC of 0.866 and an IC50 of 3880 nM.

“H2369 (mesothelioma, adherent, top dose 4 µM)” showed an AUC of 0.923 and an IC50 of over 4000 nM.

With “NCI-H358 (lung adenocarcinoma, adherent, top dose 2 µM)” the AUC was 0.97 and the IC50 was over 2000 nM.

With “TGW (neuroblastoma, adherent, top dose 4 µM)” the AUC was 0.753 and the IC50 was 1170 nM.

“NB(TU)1-10 (neuroblastoma, adherent, top dose 4 µM)” showed an AUC of 0.993 and an IC50 of over 4000 nM.

In the case of “REH (B-cell leukaemia, suspension, top dose 4 µM)”, the AUC is reported as 0.502 and the IC50 is reported as 254 nM.

“SK-N-FI (neuroblastoma, adherent, top dose 4 µM)” was tested, and the AUC was 0.823 and the IC50 was 2330 nM.

Cell Line “8505C (thyroid, adherent, top dose 4 µM)” has an AUC of 0.908 and an IC50 of over 4000 nM.

Cell Line “GRANTA-519 (B-cell lymphoma, suspension, top dose 4 µM)” has an AUC of 0.708 and an IC50 of 901 nM.

With “EVSA-T (breast, adherent, top dose 4 µM)” the AUC was 0.528 and the IC50 was 295 nM.

In the case of “HN (head and neck, adherent, top dose 4 µM)”, the AUC is reported as 0.762 and the IC50 is reported as 1350 nM.

With “HH (T-cell leukaemia, suspension, top dose 4 µM)” the AUC was 0.478 and the IC50 was 213 nM.

Work on “ES6 (Ewing sarcoma, adherent, top dose 4 µM)” yielded an AUC of 0.875 and an IC50 of over 4000 nM.

“MFH-ino (soft tissue, adherent, top dose 4 µM)” gave an AUC of 0.701 and an IC50 of 1020 nM.

“NB1 (neuroblastoma, semi-adherent, top dose 4 µM)” showed an AUC of 0.649 and an IC50 of 676 nM.

Cell Line “NB-4 (acute myeloid leukaemia, suspension, top dose 4 µM)” has an AUC of 0.537 and an IC50 of 309 nM.

“NUGC-4 (stomach, adherent, top dose 4 µM)” gave an AUC of 0.971 and an IC50 of over 4000 nM.

For “NCI-H1944 (lung adenocarcinoma, adherent, top dose 4 µM)”, the AUC was 0.759 and the IC50 was 1480 nM.

A498 (kidney, adherent, top dose 4 µM) gave an AUC of 0.709 and an IC50 of 1330 nM.

Work on “CAL-29 (bladder, adherent, top dose 4 µM)” yielded an AUC of 0.643 and an IC50 of 644 nM.

Work on “ESS-1 (endometrium, adherent, top dose 4 µM)” yielded an AUC of 0.879 and an IC50 of 3400 nM.

“NCI-H28 (mesothelioma, adherent, top dose 4 µM)” was tested, and the AUC was 0.752 and the IC50 was 1700 nM.

“MOLT-4 (lymphoblastic leukaemia, suspension, top dose 4 µM)” showed an AUC of 0.455 and an IC50 of 193 nM.

Work on JHH-7 (liver, adherent, top dose 4 µM) yielded an AUC of 0.942 and an IC50 of over 4000 nM.

OV-90 (ovary, adherent, top dose 4 µM) showed an AUC of 0.817 and an IC50 of 3100 nM.

With “NCI-H1688 (small cell lung carcinoma, adherent, top dose 4 µM)” the AUC was 0.85 and the IC50 was 3510 nM.

Cell Line “LS-1034 (large intestine, adherent, top dose 4 µM)” has an AUC of 0.96 and an IC50 of over 4000 nM.

OVK-18 (ovary, adherent, top dose 4 µM) was tested, and the AUC was 0.608 and the IC50 was 511 nM.

“NCI-H747 (large intestine, adherent, top dose 4 µM)” showed an AUC of 0.834 and an IC50 of 3460 nM.

“DAN-G (pancreas, adherent, top dose 4 µM)” was tested, and the AUC was 0.838 and the IC50 was 2230 nM.

Cell Line “NCI-H630 (large intestine, adherent, top dose 4 µM)” has an AUC of 0.974 and an IC50 of over 4000 nM.

In the case of “STS-0421 (soft tissue, adherent, top dose 4 µM)”, the AUC is reported as 0.645 and the IC50 is reported as 676 nM.

Cell Line “SW13 (adrenal gland, adherent, top dose 2 µM)” has an AUC of 0.953 and an IC50 of over 2000 nM.

For “IGROV-1 (ovary, adherent, top dose 4 µM)”, the AUC was 0.605 and the IC50 was 558 nM.

Cell Line “CAL-12T (non-small cell lung carcinoma, adherent, top dose 4 µM)” has an AUC of 0.826 and an IC50 of 2820 nM.

“OVCAR-8 (ovary, adherent, top dose 4 µM)” showed an AUC of 0.868 and an IC50 of 3000 nM.

“H2795 (mesothelioma, adherent, top dose 4 µM)” was tested, and the AUC was 0.779 and the IC50 was 1610 nM.

In the case of “SW684 (fibrosarcoma, adherent, top dose 4 µM)”, the AUC is reported as 0.82 and the IC50 is reported as 3860 nM.

“NCI-H2087 (lung adenocarcinoma, semi-adherent, top dose 4 µM)” was tested, and the AUC was 0.971 and the IC50 was over 4000 nM.

For “PC-3 [JPC-3] (lung adenocarcinoma, adherent, top dose 4 µM)”, the AUC was 0.98 and the IC50 was over 4000 nM.

“CTV-1 (acute myeloid leukaemia, suspension, top dose 4 µM)” showed an AUC of 0.761 and an IC50 of 1170 nM.

Cell Line “HD-MY-Z (Hodgkin lymphoma, adherent, top dose 4 µM)” has an AUC of 0.942 and an IC50 of over 4000 nM.

Cell Line “HCC-56 (large intestine, adherent, top dose 4 µM)” has an AUC of 0.927 and an IC50 of over 4000 nM.

Work on “BALL-1 (B-cell leukaemia, suspension, top dose 4 µM)” yielded an AUC of 0.883 and an IC50 of 2320 nM.

“LU-135 (small cell lung carcinoma, suspension, top dose 4 µM)” showed an AUC of 0.839 and an IC50 of 2080 nM.

PL4 (pancreas, adherent, top dose 4 µM) gave an AUC of 0.876 and an IC50 of over 4000 nM.

For “MSTO-211H (mesothelioma, adherent, top dose 4 µM)”, the AUC was 0.84 and the IC50 was 2380 nM.

“HCC-44 (lung adenocarcinoma, adherent, top dose 2 µM)” gave an AUC of 0.625 and an IC50 of 273 nM.

Cell Line “H290 (mesothelioma, adherent, top dose 4 µM)” has an AUC of 0.782 and an IC50 of 1520 nM.

“CHSA0011 (chondrosarcoma, adherent, top dose 4 µM)” gave an AUC of 0.86 and an IC50 of over 4000 nM.

Work on “NCI-SNU-16 (stomach, suspension, top dose 4 µM)” yielded an AUC of 0.985 and an IC50 of over 4000 nM.

“HuP-T3 (pancreas, adherent, top dose 4 µM)” showed an AUC of 0.774 and an IC50 of 1930 nM.

Cell Line “DOHH-2 (B-cell lymphoma, suspension, top dose 4 µM)” has an AUC of 0.89 and an IC50 of over 4000 nM.

“CADO-ES1 (Ewing sarcoma, suspension, top dose 4 µM)” gave an AUC of 0.95 and an IC50 of over 4000 nM.

Work on Hs683 (glioma, adherent, top dose 4 µM) yielded an AUC of 0.776 and an IC50 of 1610 nM.
